Experimental data: the supplement of paper PMC11125491
± gives the standard deviation of the averaged measurements. Growth of baker's yeast expressing single-residue variants of Pneumocystis jirovecii dihydrofolate reductase in 8.8 or 44 µM methotrexate (about 75% and 90% inhibition of the wild type). Selection coefficient per generation; 0 = like wild type, above 0 = less sensitive, below 0 = more sensitive or loss of function. No active / inactive call per row; the paper calls resistant above 0.220 (8.8 µM) or 0.243 (44 µM) together with a significance test. At 44 µM about 15% of codons end with one read or none, so the lowest values are floors (replicate rank correlation 0.74; 0.94 at 8.8 µM).

B1: UniProt A0EPZ9; numbered along this chain (parent)
chain: MDWQKSLTLIVALTLSRGIGLKNDLPWKLKSDMMFFSRVTSGLLVTRSTGQMNVVLMGRKTWESLPAHSRPLKNRINVVISRQEVLDLGGGAYHARSLDDALALLSQIYDSTSKIQLNRVFVIGGGELCKAAMEHSRLNRIIATVIHNEVDCDVFFPIDFRSSQSCLPWRKQDHSVLEAWVGSKVPQGKINENGFIYEFEMWIRDI

Variants of: B1
Experiment: selection coefficient against synonymous wild-type codons (log2 per generation); higher = faster growth than wild type
Conditions: with Saccharomyces cerevisiae carrying the variant on a plasmid
Method: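 Pooled growth of yeast carrying single-residue variants of P. jirovecii dihydrofolate reductase (own DFR1 gene intact), two passages at 30 °C, three cultures, sequenced before and after. Codons with under 15 starting reads are left out; codons of one change are averaged.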

Variant | selection coefficient against synonymous wild-type codons (log2) (methotrexate 8.8 µM) | selection coefficient against synonymous wild-type codons (log2) (methotrexate 44 µM)
R59K | 0.0965 ± 0.069 | 0.0157 ± 0.029
R59L | 0.348 ± 0.027 | 0.377 ± 0.043
R59M | 0.0299 ± 0.058 | -0.152 ± 0.14
R59N | -0.245 ± 0.064 | -0.0811 ± 0.18
R59P | -0.00271 ± 0.082 | 0.23 ± 0.059
R59Q | 0.257 ± 0.025 | 0.289 ± 0.03
R59S | -0.0859 ± 0.059 | -0.123 ± 0.11
R59T | -0.143 ± 0.087 | -0.135 ± 0.13
R59V | 0.171 ± 0.036 | 0.206 ± 0.05
R59W | 0.000946 ± 0.067 | 0.044 ± 0.073
R59Y | 0.0761 ± 0.016 | 0.0724 ± 0.066
K60A | -0.0982 ± 0.067 | -0.144 ± 0.17
K60C | -0.22 ± 0.047 | -0.209 ± 0.1
K60D | 0.341 ± 0.031 | 0.467 ± 0.037
K60E | 0.232 ± 0.017 | 0.229 ± 0.02
K60F | -0.457 ± 0.11 | -0.209 ± 0.077
K60G | -0.0376 ± 0.041 | 0.0144 ± 0.018
K60H | -0.0536 ± 0.059 | -0.0709 ± 0.17
K60I | -0.519 ± 0.1 | -0.271 ± 0.043
K60L | -0.363 ± 0.15 | -0.184 ± 0.11
K60M | -0.181 ± 0.043 | -0.0665 ± 0.055
K60N | -0.0885 ± 0.041 | -0.172 ± 0.19
K60P | -0.0242 ± 0.072 | 0.115 ± 0.11
K60Q | -0.0282 ± 0.081 | -0.0757 ± 0.12

Variant | selection coefficient against synonymous wild-type codons (log2) (methotrexate 8.8 µM) | selection coefficient against synonymous wild-type codons (log2) (methotrexate 44 µM)
K60R | -0.128 ± 0.064 | -0.0539 ± 0.19
K60S | 0.021 ± 0.084 | -0.0868 ± 0.13
K60T | -0.124 ± 0.052 | -0.106 ± 0.12
K60V | -0.501 ± 0.077 | -0.25 ± 0.12
K60W | -0.309 ± 0.07 | -0.184 ± 0.051
K60Y | -0.311 ± 0.07 | -0.171 ± 0.086
T61A | -0.288 ± 0.16 | -0.211 ± 0.074
T61C | 0.0481 ± 0.034 | -0.0443 ± 0.087
T61D | -0.537 ± 0.043 | -0.289 ± 0.015
T61E | -0.577 ± 0.084 | -0.287 ± 0.064
T61F | -0.328 ± 0.34 | -0.069 ± 0.39
T61G | -0.431 ± 0.098 | -0.25 ± 0.044
T61H | -0.605 ± 0.056 | -0.358 ± 0.056
T61I | -0.513 ± 0.079 | -0.266 ± 0.085
T61K | -0.515 ± 0.015 | -0.225 ± 0.071
T61L | -0.501 ± 0.084 | -0.33 ± 0.088
T61M | -0.518 ± 0.071 | -0.244 ± 0.12
T61N | -0.0216 ± 0.042 | 0.0281 ± 0.17
T61P | -0.49 ± 0.072 | -0.23 ± 0.11
T61Q | 0.14 ± 0.016 | 0.27 ± 0.034
T61R | -0.506 ± 0.046 | -0.259 ± 0.048
T61S | 0.0195 ± 0.044 | 0.0402 ± 0.12
T61V | -0.423 ± 0.12 | -0.326 ± 0.082
T61W | -0.56 ± 0.061 | -0.312 ± 0.068

Variant | selection coefficient against synonymous wild-type codons (log2) (methotrexate 8.8 µM) | selection coefficient against synonymous wild-type codons (log2) (methotrexate 44 µM)
T61Y | -0.516 ± 0.071 | -0.311 ± 0.0074
W62A | -0.554 ± 0.059 | -0.306 ± 0.06
W62C | -0.544 ± 0.16 | -0.139 ± 0.14
W62D | -0.579 ± 0.028 | -0.332 ± 0.032
W62E | -0.574 ± 0.048 | -0.327 ± 0.035
W62F | -0.318 ± 0.08 | -0.211 ± 0.11
W62G | -0.509 ± 0.063 | -0.367 ± 0.028
W62H | -0.497 ± 0.075 | -0.317 ± 0.073
W62I | -0.501 ± 0.059 | -0.254 ± 0.034
W62K | -0.561 ± 0.061 | -0.313 ± 0.056
W62L | -0.475 ± 0.13 | -0.236 ± 0.092
W62M | -0.607 ± 0.032 | -0.276 ± 0.15
W62N | -0.522 ± 0.059 | -0.189 ± 0.062
W62P | -0.465 ± 0.096 | -0.217 ± 0.089
W62Q | -0.501 ± 0.18 | -0.296 ± 0.078
W62R | -0.387 ± 0.11 | -0.197 ± 0.14
W62S | -0.498 ± 0.052 | -0.25 ± 0.057
W62T | -0.488 ± 0.1 | -0.24 ± 0.095
W62V | -0.483 ± 0.1 | -0.248 ± 0.081
W62Y | -0.151 ± 0.02 | -0.257 ± 0.081
E63A | -0.289 ± 0.074 | -0.185 ± 0.14
E63C | -0.493 ± 0.17 | -0.288 ± 0.067
E63D | -0.104 ± 0.052 | -0.0821 ± 0.075
E63F | -0.385 ± 0.15 | -0.213 ± 0.026

Variant | selection coefficient against synonymous wild-type codons (log2) (methotrexate 8.8 µM) | selection coefficient against synonymous wild-type codons (log2) (methotrexate 44 µM)
E63G | -0.63 ± 0.03 | -0.315 ± 0.095
E63H | -0.347 ± 0.11 | -0.281 ± 0.044
E63I | -0.5 ± 0.037 | -0.185 ± 0.093
E63K | -0.163 ± 0.33 | -0.0503 ± 0.3
E63L | -0.452 ± 0.13 | -0.273 ± 0.086
E63M | -0.446 ± 0.021 | -0.308 ± 0.06
E63N | -0.406 ± 0.13 | -0.158 ± 0.15
E63P | -0.403 ± 0.039 | -0.156 ± 0.051
E63Q | -0.307 ± 0.033 | -0.242 ± 0.14
E63R | -0.476 ± 0.097 | -0.293 ± 0.072
E63S | -0.399 ± 0.12 | -0.239 ± 0.074
E63T | -0.469 ± 0.087 | -0.233 ± 0.069
E63V | -0.558 ± 0.071 | -0.268 ± 0.086
E63W | -0.546 ± 0.035 | -0.256 ± 0.13
E63Y | -0.294 ± 0.12 | 0.0133 ± 0.37
S64A | -0.0843 ± 0.051 | -0.0568 ± 0.057
S64C | -0.327 ± 0.065 | -0.164 ± 0.23
S64D | 0.00856 ± 0.065 | -0.0743 ± 0.14
S64E | -0.331 ± 0.12 | -0.32 ± 0.13
S64F | -0.403 ± 0.14 | -0.197 ± 0.087
S64G | -0.143 ± 0.046 | -0.202 ± 0.12
S64H | -0.448 ± 0.19 | -0.241 ± 0.1
S64I | -0.474 ± 0.073 | -0.268 ± 0.085
S64K | -0.363 ± 0.1 | -0.323 ± 0.14

Variant | selection coefficient against synonymous wild-type codons (log2) (methotrexate 8.8 µM) | selection coefficient against synonymous wild-type codons (log2) (methotrexate 44 µM)
S64L | -0.514 ± 0.1 | -0.319 ± 0.098
S64M | -0.363 ± 0.076 | -0.227 ± 0.034
S64N | -0.323 ± 0.27 | -0.289 ± 0.024
S64P | -0.407 ± 0.092 | -0.125 ± 0.1
S64Q | -0.479 ± 0.16 | -0.231 ± 0.16
S64R | -0.426 ± 0.08 | -0.294 ± 0.13
S64T | -0.196 ± 0.075 | -0.14 ± 0.15
S64V | -0.499 ± 0.17 | -0.311 ± 0.045
S64W | -0.492 ± 0.089 | -0.371 ± 0.096
S64Y | -0.384 ± 0.1 | -0.238 ± 0.12
L65A | -0.339 ± 0.14 | -0.2 ± 0.1
L65C | -0.261 ± 0.048 | -0.225 ± 0.15
L65D | -0.385 ± 0.22 | -0.0381 ± 0.087
L65E | -0.16 ± 0.028 | -0.245 ± 0.15
L65F | 0.132 ± 0.048 | 0.201 ± 0.047
L65G | -0.228 ± 0.045 | -0.129 ± 0.072
L65H | -0.138 ± 0.063 | -0.0327 ± 0.052
L65I | -0.177 ± 0.082 | -0.121 ± 0.039
L65K | -0.436 ± 0.18 | -0.243 ± 0.084
L65M | 0.00928 ± 0.077 | 0.0888 ± 0.073
